Measured values taken from PubChem BioAssay AID1963576 (National Center for Advancing Translational Sciences (NCATS), 2024).
Among all 46,000 compounds or so, about 60 (0.1%) were called active. Another 3% or so got no clear call; they are omitted. Calls come from the whole dose curve; as a rule, active = well fitted inhibition curve with a large enough effect; inconclusive = small, poorly fitted or top-dose-only effect; inactive = no such curve, though single readings can be large or run the other way. Some of the results follow.

Assay: Primary qHTS assay for Inhibitors of ovarian cancer metastasis using an organotypic tumor microenvironment (TME) model.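 For activity change, negative = inhibition: plate controls were DMSO wells for no effect and tomatine positive control wells for full effect.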 Note: nearly all actives have a fitted effect of over 65% in size.
Conditions: SKOV3ip1-GFP adhesion/invasion on 3D omental model, fluorescence; series mostly up to 45.8 µM; activity change, negative = inhibition: at the top concentration
How it was run: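 Primary human omental fibroblast/mesothelial 3D culture pre-formed 48 h. SKOV3ip1-GFP cells added with compounds (0.36-46 umol/L), incubated 2 h RT/16 h 37 C, fixed; GFP cells quantified at 488/509 nm.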

outcome, inactive:
COc1ccc(N2CCN(C(=O)c3ccc(-c4nc(COc5ccccc5)c(C)o4)cc3)CC2)cc1
COc1ccc(C(C)C)cc1S(=O)(=O)NCCc1c(C)[nH]c2ccc(C)cc12
COc1ccc(-c2cc(-c3ccccc3)nc(SCC(=O)CC(=O)OC(C)C)c2C#N)cc1
O=C(c1ccc2c(c1)N(Cc1ccccc1F)C(=O)c1ccccc1S2(=O)=O)N1CCCC1
CC(NC(=O)CCSCc1ccccc1F)c1ccccc1 (stereo not given)
CCc1ccc(CNC(=O)CSc2cc(=O)n(C)c3ccc(Cl)cc23)cc1
CCN(CC)S(=O)(=O)c1cc(-c2onc(C)c2C)ccc1OC
COc1ccc(CCCc2nnc(SCC(=O)Nc3ccc(C)cc3C)o2)cc1
Cc1ccc(-c2noc(-c3nnn(CC(=O)Nc4cc(C)cc(C)c4)c3N)n2)cc1
CCc1ccc(C(=O)c2cn(CC(=O)Nc3ccc(OC)cc3OC)c3ccc(CC)cc3c2=O)cc1
Cc1ccc(N(C)C(=O)c2cnc(N3CCOCC3)c3ccccc23)cc1C
CCOc1ccc(-c2nc(SCC(=O)NCCOC)c(-c3ccc(OC)c(OC)c3)[nH]2)cc1
O=S(=O)(NCc1cccc(Br)c1)c1ccc(-c2cc(C(F)(F)F)on2)s1
CCOc1ccc(NC(=O)Cn2cc(C(=O)c3ccc(C)c(C)c3)c(=O)c3cc4c(cc32)OCCO4)cc1
CN1C(=O)C(C)(C)c2cc(S(=O)(=O)NCc3ccc(C(=O)Nc4ccc(Cl)cc4)cc3)ccc21

Activity change, negative = inhibition, inactive:
Cc1cccc(OCC(=O)N(Cc2sccc2C)C2CCS(=O)(=O)C2)c1 (stereo not given) 8.05%
CCCNC(=O)C1CCC(Cn2c(=O)c3sccc3n(CC(=O)N3CCC(C)CC3)c2=O)CC1 (stereo not given) 3.01%
O=C(Cn1nc(-c2ccc(Cl)cc2)ccc1=O)NCc1ccccc1Cl -16.4%
Cc1nnc(NS(=O)(=O)c2ccc(N)cc2)s1 -3.62%
CCOc1ccc(OCC)c(NC(=O)CN(C)S(=O)(=O)c2ccc3c(c2)CCCC(=O)N3)c1 -6.84%
COc1cccc(C2C(C(=O)Nc3ccc(C)cc3C)=C(C)Nc3c(C(=O)Nc4cccc(C)c4)cnn32)c1OC (stereo not given) -0.797%
COc1cccc(N2CCN(C3C(=O)c4ccccc4N3C(C)=O)CC2)c1 (stereo not given) -13.4%
COc1ccc(N2CCN(C(=O)c3nc(SC)ncc3Cl)CC2)cc1 1.25%
Cc1coc2c(C)c3oc(=O)c(CCC(=O)NCCc4ccc(Cl)cc4)c(C)c3cc12 -2.62%
CCOc1ccc(-c2nc(C#N)c(NCCCOC)o2)cc1 -8.32%
CC(NC(=O)CCCn1c(=O)c2cccn2c2cccnc21)c1ccccc1 (stereo not given) 16.9%
Cc1ccccc1OCCn1c(CCNC(=O)C(C)(C)C)nc2ccccc21 -2.41%
CC1=C(c2ccc(C)c(C)c2)S(=O)(=O)N=C1N1CCC(C(=O)NCc2ccc(C)o2)CC1 -9.43%
CC(C)(C)OC(=O)N1CCC(c2c(C(=O)N3CCc4ccccc4C3)cnn2-c2ccc(F)cc2)CC1 -12.1%
COCCCNC(=O)c1c(NC(=O)Cc2coc3cc(C)cc(C)c23)sc2c1CCCC2 1.38%
COc1ccc(OC)c(CNC(=O)Cc2ccc(NC(=O)N3CCCCc4ccccc43)cc2)c1 6.05%
CCN(CCCNC(=O)c1cc2c(=O)n(CC)c3ccccc3c2s1)c1ccccc1 22.1%
O=C(CSc1nccn1Cc1ccc(F)cc1)Nc1ccc2c(c1)OCCO2 1.12%
CCCNC(=O)CSc1nc2nc(C)c(Cc3ccccc3Cl)c(C)n2n1 6.98%
COc1ccc(C(=O)N(Cc2cc(OC)c(OC)c(OC)c2)CC2CCCO2)cc1 (stereo not given) 11.6%
O=C(NCC(c1cccnc1)N1CCc2ccccc21)c1cccc(C(F)(F)F)c1 (stereo not given) -11.2%
Cc1cc(F)ccc1NCc1ccccc1-c1nnc(-c2ccccc2Cl)o1 6.73%
O=C(NCc1cccc(Cl)c1)C1CCN(C(=O)c2sccc2-n2cccc2)CC1 -2.74%
CC(=O)N1CCC(N(C(=O)Nc2c(F)cccc2F)C(C)C)CC1 -4.3%
COc1cccc(C(=O)Nc2cccc(C(=O)OCc3cc(=O)n4nc(C(C)C)sc4n3)c2)c1 -5.17%
Cc1cc(C)cc(OCC(=O)Nc2ccc(S(=O)(=O)Nc3onc(C)c3C)cc2)c1 -5.73%
COc1ccc(S(=O)(=O)NCCc2csc(-c3ccc(F)cc3)n2)cc1 -1.32%
CCOC(=O)NC1(C(F)(F)F)NC(=O)N(c2ccc(C)c(C)c2)C1=O (stereo not given) 31.3%
O=C(CSC1=Nc2ccccc2C2=NC(Cc3ccccc3)C(=O)N12)Nc1ccccc1F (stereo not given) -23.3%
Cc1cc(C)cc(NC(=O)CSc2nc(-c3cccc(Cl)c3)nc3c2Cc2c(CO)cnc(C)c2O3)c1 -11.4%
CSc1nc2sc3c(c2c(=O)n1-c1ccc(F)c(Cl)c1)CCN(C(C)=O)C3 2.82%
CCc1ccc(-n2nc(C)c3c(C(=O)Nc4cc(OC)cc(OC)c4)cc(C)nc32)cc1 -9.2%
Cc1nc(CC(=O)Nc2ccc(N(C)C)cc2)cs1 4.89%
Cc1ccccc1NC(=O)CSC1=Nc2ccccc2C2=NC(CCC(=O)NCc3ccccc3)C(=O)N12 (stereo not given) 1.56%
Cc1nn(CC(=O)NCc2ccccc2Cl)c(=O)c2nn(-c3ccccc3)c(C)c12 1.27%
COc1ccc(-n2nc(C(=O)Nc3cccc(C(F)(F)F)c3)c3c4ccccc4n(C)c3c2=O)cc1 -0.955%
Cc1ccc(-c2nc(C)c(CCNS(=O)(=O)c3ccccc3F)s2)cc1 1.6%
CCCCn1cc(S(=O)(=O)c2ccc(OC)cc2)c(=O)c2cc(F)c(N3CCCC3)cc21 2.99%
COc1ccc(C(=O)Nc2ccc3nc(SCC(=O)N4CCCc5ccccc54)sc3c2)cc1 -19.7%
COC(=O)c1sccc1S(=O)(=O)N(CC(=O)NCc1ccc(C)cc1)c1ccc(Cl)cc1 4.69%
COC(=O)CN1C(=O)CSc2ccc(S(=O)(=O)N3CCOCC3)cc21 -0.811%
CCN(CC)C(=O)c1sc2c(c1C)c(=O)n(-c1ccc(Cl)c(Cl)c1)c(=O)n2Cc1cc(=O)n2c(C)cccc2n1 -0.329%
COc1ccccc1CNC(=O)CN1C(=O)COc2ccc(S(=O)(=O)N3CCCCC3)cc21 -1.37%
Cc1cc(C)cc(N2C(=O)N(CC(=O)c3ccc(Br)cc3)c3ccccc3S2(=O)=O)c1 3.57%
Cc1cccc(NC(=O)N2CCC(CN3CCc4ccccc4C3)CC2)c1C -22.3%
